From publication PMC4336329 (PLoS ONE, 2015)
Hit rate of the full screen: of about 310,000 compounds, about 14,000 (4.5%) showed an effect of 50% or more. Effects have a minus sign here. The list shows a part of the results.

biological target: human ether-à-go-go-related gene (hERG) potassium channel (human, UniProt Q12809); test: primary screen, population patch clamp on CHO cells stably expressing hERG
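Also: peak tail current of the secondary pulse compared with the same well before compound.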

human ether-à-go-go-related gene (hERG) potassium channel, sequence (Q12809 whole entry, looked up): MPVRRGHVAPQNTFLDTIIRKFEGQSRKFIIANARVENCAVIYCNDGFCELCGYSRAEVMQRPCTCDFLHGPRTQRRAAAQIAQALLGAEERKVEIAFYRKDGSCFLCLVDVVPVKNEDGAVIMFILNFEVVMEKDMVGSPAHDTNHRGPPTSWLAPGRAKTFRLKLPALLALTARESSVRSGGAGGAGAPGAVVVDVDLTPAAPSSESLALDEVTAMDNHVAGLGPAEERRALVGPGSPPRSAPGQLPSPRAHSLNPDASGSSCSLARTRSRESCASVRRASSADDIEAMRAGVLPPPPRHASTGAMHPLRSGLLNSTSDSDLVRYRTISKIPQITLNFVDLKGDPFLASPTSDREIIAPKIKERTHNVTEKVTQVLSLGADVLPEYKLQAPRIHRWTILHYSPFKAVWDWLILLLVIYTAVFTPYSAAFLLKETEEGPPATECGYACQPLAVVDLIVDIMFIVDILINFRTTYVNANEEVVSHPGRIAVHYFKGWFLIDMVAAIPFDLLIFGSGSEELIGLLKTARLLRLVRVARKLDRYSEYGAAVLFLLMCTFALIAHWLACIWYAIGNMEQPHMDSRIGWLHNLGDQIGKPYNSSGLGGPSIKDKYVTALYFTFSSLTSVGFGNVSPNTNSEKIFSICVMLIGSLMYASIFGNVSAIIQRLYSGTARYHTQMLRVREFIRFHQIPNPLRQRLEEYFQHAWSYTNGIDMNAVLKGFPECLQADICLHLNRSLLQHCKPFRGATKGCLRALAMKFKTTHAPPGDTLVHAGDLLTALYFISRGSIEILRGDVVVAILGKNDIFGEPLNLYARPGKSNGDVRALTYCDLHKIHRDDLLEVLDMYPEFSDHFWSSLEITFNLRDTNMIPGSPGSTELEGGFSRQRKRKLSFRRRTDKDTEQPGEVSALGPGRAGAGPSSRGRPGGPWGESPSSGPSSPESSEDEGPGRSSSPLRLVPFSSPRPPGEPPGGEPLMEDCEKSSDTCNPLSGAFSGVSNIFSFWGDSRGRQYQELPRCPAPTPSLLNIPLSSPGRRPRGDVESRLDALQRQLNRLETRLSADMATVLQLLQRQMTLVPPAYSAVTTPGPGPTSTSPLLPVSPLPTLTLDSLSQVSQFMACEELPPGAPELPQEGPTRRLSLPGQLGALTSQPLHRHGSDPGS

Row | SMILES | hERG current change (%, negative = inhibition) at 10uM
1 | COc1cccc(CN(C)CC(=O)NNC(=O)c2ccc(Cl)cc2)c1 | -12.5%
2 | CCOC(=O)N1CCC(N2Cc3cccc(C(=O)Nc4ccc(OCC)cc4)c3C2=O)CC1 | 9.07%
3 | COc1ccc(NC(=O)CSc2nc(N)c3cc4c(nc3n2)CCCC4)c(OC)c1 | -3.18%
4 | COc1ccc(S(=O)(=O)N(Cc2ccccc2)Cc2nc3ccccc3c(=O)[nH]2)cc1 | -25.7%
5 | CCOC(=O)CSc1nnc(-c2ccc(Cl)cc2Cl)o1 | -25.5%
6 | O=C(CN1CCC(n2nnc3ccccc32)CC1)Nc1ccc2c(c1)CCC2 | -39.3%
7 | Cc1cc(C)c(S(=O)(=O)Nc2ccc3c(c2)CCC3)c(C)c1 | -0.42%
8 | CCOc1ccc2oc(-c3ccccc3)c(C(=O)N3CCN(C)CC3)c2c1 | -9.67%
9 | O=C(CN1C(=O)S/C(=C\c2ccccc2Cl)C1=O)NCCCn1ccnc1 | -44.5%
10 | CC(=O)c1ccc(-c2ccc(Cn3c(C)nc4cc(N)c(C)nc43)cc2)cc1 | 17.7%
11 | N#C/C(=C/c1cccs1)c1ccccn1 | 7.54%
12 | CC(=O)c1c(N2CCC(C(N)=O)CC2)nc(=S)n(-c2ccccc2)c1C | -12.2%
13 | Cc1nn(-c2ccccn2)c2nc(-c3cccs3)cc(C(=O)NCc3ccco3)c12 | -67.3%
14 | O=C(CCC(=O)c1cccs1)OCc1ccc([N+](=O)[O-])cc1 | -26%
15 | C#CCOCCOCCOCCNc1nc(N2CCN(C(=O)[C@H](CCC(=O)O)n3cc(C(N)CC(C)C)nn3)CC2)nc(N2CCN(C(=O)[C@H](Cc3ccc(O)cc3)n3cc(C(N)CC(C)C)nn3)CC2)n1.Cl (stereo partly drawn) | -0.138%
16 | OCCCn1c(C2CCCN2c2nc(-c3ccc(F)cc3)cs2)nc2cc(Cl)c(Cl)cc21 (stereo not drawn) | -0.34%
17 | O=C(COC(=O)C12CC3CC(CC(Cl)(C3)C1)C2)Nc1ccc2[nH]c(=O)[nH]c2c1 | 11.5%
18 | CCOC(=O)C(Cc1ccccc1)NC(=O)CCc1nnc2ccc(N3CCCC3)nn12 (stereo not drawn) | 1.11%
19 | Cc1ccc(C(C)C)c(OCC(=O)NN=C(CCl)CCl)c1 | 7.07%
20 | CCn1cc(C(=O)NCCCN2CC(C)CC(C)C2)c(=O)c2cc(S(=O)(=O)N(C)C3CCCCC3)ccc21 (stereo not drawn) | -84.3%
21 | S=C(NCCc1ccccc1)Nc1ccccc1 | 7.3%
22 | CCCc1nc2oc3c(=O)[nH]cnc3c2c2c1CCCC2 | -56.5%
23 | Cc1cc(-c2ccco2)n(CC(=O)NCc2ccccc2)n1 | 6.97%
24 | Cc1cnc(NC(=O)CSc2nnc(-c3cccs3)n2C)s1 | -59.4%
25 | CCOC(=O)C(CC)(CC)/C(C)=N/NC(=O)CC#N | 4.66%
26 | Cc1ccc(C)c(NC(=O)CCCCCCCCCCC2COCCO2)c1 (stereo not drawn) | -6.1%
27 | COc1cc(CNc2nnnn2C)ccc1OCc1c(F)cccc1Cl | 0.756%

Row | SMILES | hERG current change (%, negative = inhibition) at 10uM
28 | O=C(CS(=O)(=O)c1cn(Cc2ccc(F)cc2)c2ccccc12)N1CCOCC1 | -16.7%
29 | CCN(CC)c1ccc(/C=N/n2c(-c3ccccc3Br)n[nH]c2=S)cc1 | 16.6%
30 | COc1ccc(C2C3=C(CC(C)(C)CC3=O)OC(N)=C2[N+](=O)[O-])cc1 (stereo not drawn) | 8.74%
31 | CC1=C(CC(=O)NCC(=O)NCC(=O)O)c2cc(F)ccc2/C1=C/c1ccc(S(C)=O)cc1 (stereo not drawn) | 8.36%
32 | COC(=O)CCCC1=CC2=CC(=O)C(C)(OC(=O)c3cccs3)C(=O)C2=CN1c1cccc(C#N)c1 (stereo not drawn) | -15.4%
33 | O=S(=O)(NCc1c(Cl)cccc1Oc1ccccc1)c1ccc(F)cc1 | -45.3%
34 | S=c1[nH]nc(Cc2cccs2)n1-c1ccccc1 | 16.2%
35 | Cc1cccc(CN2CCSc3sccc3C2=O)c1 | 14.5%
36 | CCCCCCn1c(Br)nc2c1c(=O)n(C)c(=O)n2C | -22.3%
37 | Cn1c2c(c(=O)n(C)c1=O)C(NC(=O)c1cccs1)(C(F)(F)F)C(=O)N2 (stereo not drawn) | 5.38%
38 | COc1ccc(NC(=O)CSc2nnc(CCC(=O)O)c(=O)n2N)cc1 | 20.7%
39 | Cc1cccc(N=Nc2ccc(N(C)C)cc2)c1 | -1.6%
40 | CNC(=S)NNC(=O)c1ccc(C(C)(C)C)cc1 | 5.65%
41 | COc1ccc(NC(=O)c2cn(-c3ccccc3)nc2-c2ccncc2)cc1 | -1.51%
42 | CCC(C)NC(=O)c1ccc(CS(=O)(=O)Cc2ccc(Cl)cc2)o1 (stereo not drawn) | -17.9%
43 | Cc1ccccc1Cn1c(Cc2ccccc2)nc2ccccc21 | -19.6%
44 | CN(C)CCN(C(=O)c1ccc(S(=O)(=O)N(C)c2ccccc2)cc1)c1nc2ccc(Cl)cc2s1.Cl | -13%
45 | COc1cc2c(cc1OC)C(c1ccccc1)N(S(C)(=O)=O)CC2 (stereo not drawn) | 2.29%
46 | Cc1ccc(C(O)(C(=O)NNc2ccc3ccccc3n2)c2ccc(C)cc2)cc1.Cl | 5.9%
47 | O=[N+]([O-])c1cccc(-n2nncc2-c2ccccc2)c1 | -1.23%
48 | CC(=O)COC(=O)c1cc(-c2ccc(C)cc2)nc2ccccc12 | 9.96%
49 | C=C1CCc2c([nH]c3ccc(OCC(C)C)cc23)C1=O | 17.2%
50 | COc1ccc(OC)c(NC(=O)COC(=O)c2cc3c(s2)CCC3)c1 | -2.09%
51 | CCN(CC)CCNC(=O)c1cc(Cl)c(N)cc1OC.Cl | 7.04%
52 | CCOC(=O)CSc1nc2ccccc2n1CC(=O)N1CCN(c2ccccc2)CC1 | -42%
53 | O=C(Nc1ccc2c(c1)OCCO2)C1CCCN(S(=O)(=O)c2cnc[nH]2)C1 (stereo not drawn) | 20.6%
54 | COc1cccc(C2=NOC(C(=O)NCC3CCCO3)C2)c1 (stereo not drawn) | 6.5%
